Experimental findings from patent publication US10004812B2 (priority 2014, dated 2018) are described below.

The target of data set [1] is T1, recombinant mouse ENG (Mus musculus, UniProt Q63961).
T1 sequence (Q63961 whole entry, looked up): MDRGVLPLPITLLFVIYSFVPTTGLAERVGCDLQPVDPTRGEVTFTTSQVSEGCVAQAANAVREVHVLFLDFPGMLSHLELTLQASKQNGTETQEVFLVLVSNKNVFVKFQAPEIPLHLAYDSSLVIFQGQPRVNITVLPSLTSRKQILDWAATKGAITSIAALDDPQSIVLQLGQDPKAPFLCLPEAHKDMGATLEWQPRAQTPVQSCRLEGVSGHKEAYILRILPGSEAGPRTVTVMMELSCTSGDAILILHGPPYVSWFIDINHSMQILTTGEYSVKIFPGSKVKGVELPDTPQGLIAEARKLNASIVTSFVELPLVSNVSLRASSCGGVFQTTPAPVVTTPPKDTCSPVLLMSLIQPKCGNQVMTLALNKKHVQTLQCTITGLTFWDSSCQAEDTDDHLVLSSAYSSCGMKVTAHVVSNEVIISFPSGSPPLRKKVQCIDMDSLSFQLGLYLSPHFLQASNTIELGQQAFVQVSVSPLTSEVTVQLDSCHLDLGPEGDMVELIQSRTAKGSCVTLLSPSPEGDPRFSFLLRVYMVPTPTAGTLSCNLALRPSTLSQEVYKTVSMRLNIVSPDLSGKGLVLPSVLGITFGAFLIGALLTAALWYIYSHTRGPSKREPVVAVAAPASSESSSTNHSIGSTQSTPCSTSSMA
Put plainly: ELISA binding to recombinant mouse ENG (aa 27-581). The conditions noted are these: not to negative control (BSA); FIG. 1. As for the experimental part: Plasmids corresponding to full length IgG1 antibodies were generated and transfected into CHO cells for production of antibodies in Lonza's CHO expressing system with yields of approximately 1 mg/L of cell culture (lab scale). Antibodies were purified from cell culture supernatant by protein A chromatography. Purified proteins were characterized by SDS-PAGE and size exclusion chromatography. Bioactivity was analyzed by ELISA using recombinant ENG and detection of bound antibodies with HRP-conjugated anti-human IgG antibodies. Cell binding was analyzed by flow cytometry using ENG-expressing mouse B16 cell.
Purified anti-muENG mE12 and anti-huENG A5 antibodies were analyzed in ELISA for binding to recombinant ENG and using flow cytometry analysis (FACS).
Purified proteins A5-IgG and mE12-IgG were characterized by SDS-PAGE and size exclusion chromatography. Bioactivity was analyzed by ELISA, using recombinant mouse/human ENG and detection of bound antibodies with HRP-conjugated anti-human IgG antibodies. Cell binding was analyzed by flow cytometry, using ENG-positive HT1080 and ENG expressing mouse eEnd2. Melting points were determined by dynamic light scattering using a zetasizer nano. Affinities were determined by QCM using an Attana A100. […]

A short description of data set [2]: Melting point by dynamic light scattering (zetasizer nano). Type of data set: physicochemical. The conditions noted are these: thermal stability. As for the experimental part: Purified proteins A5-IgG and mE12-IgG were characterized by SDS-PAGE and size exclusion chromatography. Bioactivity was analyzed by ELISA, using recombinant mouse/human ENG and detection of bound antibodies with HRP-conjugated anti-human IgG antibodies. Cell binding was analyzed by flow cytometry, using ENG-positive HT1080 and ENG expressing mouse eEnd2. Melting points were determined by dynamic light scattering using a zetasizer nano. Affinities were determined by QCM using an Attana A100. Internalization study was performed by indirect immunofluorescence confocal microscopy on permeabilized cells, detecting bound and internalized antibodies with a FITC-labeled secondary antibody.

B1: mE12-IgG1: human anti-murine Endoglin IgG1; heavy chain SEQ ID NO: 15, light chain SEQ ID NO: 16 (antibody)
heavy: EVQLVESGGGVVQPGRSLRLSCAASGFTFSSYGMHWVRQAPGKGLVWVSRINSDGSSTSYADSVKGRFTISRDNSKNTLYLQMNSLRAEDTAVYYCARATGTWVMSWGQGTLVTVSSASTKGPSVFPLAPSSKSTSGGTAALGCLVKDYFPEPVTVSWNSGALTSGVHTFPAVLQSSGLYSLSSVVTVPSSSLGTQTYICNVNHKPSNTKVDKKVEPKSCDKTHTCPPCPAPPVAGPSVFLFPPKPKDTLMISRTPEVTCVVVDVSHEDPEVKFNWYVDGVEVHNAKTKPREEQYNSTYRVVSVLTVLHQDWLNGKEYKCKVSNKGLPSSIEKTISKAKGQPREPQVYTLPPSRDELTKNQVSLTCLVKGFYPSDIAVEWESNGQPENNYKTTPPVLDSDGSFFLYSKLTVDKSRWQQGNVFSCSVMHEALHNHYTQKSLSLSPGK
light: SSELIQDPAVSVALGQTVRITCQGDSLRSYYASWYQQKPGQAPVLVIYGKNNRPSGIPDRFSGSSSGNTASLTITGAQAEDEADYYCNSRDSSGTVFGGGTKLTVLGQPKANPTVTLFPPSSEELQANKATLVCLISDFYPGAVTVAWKADGSPVKAGVETTKPSKQSNNKYAASSYLSLTPEQWKSHRSYSCQVTHEGSTVEKTVAPTECS
modifications: Synthetic sequence mE12-IgG1-HC - without signal sequence; Synthetic sequence mE12-IgG1-LC - without signal sequence
For the molecule B1, in data set [1], the “binding to recombinant mouse ENG (ELISA), in words” value is “concentration-dependent binding”. The “Tm (DLS)” value in data set [2] turned out to be 64 °C.
